Hit rate of the full screen: of about 360,000 compounds, about 16,000 (4.4%) were called active. Inconclusive results, whose numbers are uncertain, are shown with a selection of clear calls. Calls come from the whole dose curve; as a rule, active = well fitted inhibition curve with a large enough effect; inconclusive = small, poorly fitted or top-dose-only effect; inactive = no such curve, though single readings can be large or run the other way. Potencies beside an inconclusive call are fits to weak or partial responses and may not hold up.
molecular target: Bromodomain adjacent to zinc finger domain protein 2B (Homo sapiens) (UniProt Q9UIF8); test: qHTS Assay for Inhibitors of BAZ2B; details: AlphaScreen BAZ2B-H3K14Ac peptide displacement; activity change, negative = inhibition: at 114 µM (top of the series); note: nearly all actives have a fitted effect of over 60% in size
How it was run: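 AlphaScreen luminescence quantifies BAZ2B engagement of H3K14Ac peptide; the protein and biotinylated peptide are both at 50 nM final, buffer PBS pH 7.4 with 0.01% Tween-20, all steps at room temperature.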
% is set by controls: 0 for no effect and ±100 for the full control effect; potency is the fitted concentration of half-maximal effect; tags give direction and shape of the fitted curve.

UniProt Q9UIF8, sequence (Q9UIF8 whole entry, looked up, the tested form may be a part): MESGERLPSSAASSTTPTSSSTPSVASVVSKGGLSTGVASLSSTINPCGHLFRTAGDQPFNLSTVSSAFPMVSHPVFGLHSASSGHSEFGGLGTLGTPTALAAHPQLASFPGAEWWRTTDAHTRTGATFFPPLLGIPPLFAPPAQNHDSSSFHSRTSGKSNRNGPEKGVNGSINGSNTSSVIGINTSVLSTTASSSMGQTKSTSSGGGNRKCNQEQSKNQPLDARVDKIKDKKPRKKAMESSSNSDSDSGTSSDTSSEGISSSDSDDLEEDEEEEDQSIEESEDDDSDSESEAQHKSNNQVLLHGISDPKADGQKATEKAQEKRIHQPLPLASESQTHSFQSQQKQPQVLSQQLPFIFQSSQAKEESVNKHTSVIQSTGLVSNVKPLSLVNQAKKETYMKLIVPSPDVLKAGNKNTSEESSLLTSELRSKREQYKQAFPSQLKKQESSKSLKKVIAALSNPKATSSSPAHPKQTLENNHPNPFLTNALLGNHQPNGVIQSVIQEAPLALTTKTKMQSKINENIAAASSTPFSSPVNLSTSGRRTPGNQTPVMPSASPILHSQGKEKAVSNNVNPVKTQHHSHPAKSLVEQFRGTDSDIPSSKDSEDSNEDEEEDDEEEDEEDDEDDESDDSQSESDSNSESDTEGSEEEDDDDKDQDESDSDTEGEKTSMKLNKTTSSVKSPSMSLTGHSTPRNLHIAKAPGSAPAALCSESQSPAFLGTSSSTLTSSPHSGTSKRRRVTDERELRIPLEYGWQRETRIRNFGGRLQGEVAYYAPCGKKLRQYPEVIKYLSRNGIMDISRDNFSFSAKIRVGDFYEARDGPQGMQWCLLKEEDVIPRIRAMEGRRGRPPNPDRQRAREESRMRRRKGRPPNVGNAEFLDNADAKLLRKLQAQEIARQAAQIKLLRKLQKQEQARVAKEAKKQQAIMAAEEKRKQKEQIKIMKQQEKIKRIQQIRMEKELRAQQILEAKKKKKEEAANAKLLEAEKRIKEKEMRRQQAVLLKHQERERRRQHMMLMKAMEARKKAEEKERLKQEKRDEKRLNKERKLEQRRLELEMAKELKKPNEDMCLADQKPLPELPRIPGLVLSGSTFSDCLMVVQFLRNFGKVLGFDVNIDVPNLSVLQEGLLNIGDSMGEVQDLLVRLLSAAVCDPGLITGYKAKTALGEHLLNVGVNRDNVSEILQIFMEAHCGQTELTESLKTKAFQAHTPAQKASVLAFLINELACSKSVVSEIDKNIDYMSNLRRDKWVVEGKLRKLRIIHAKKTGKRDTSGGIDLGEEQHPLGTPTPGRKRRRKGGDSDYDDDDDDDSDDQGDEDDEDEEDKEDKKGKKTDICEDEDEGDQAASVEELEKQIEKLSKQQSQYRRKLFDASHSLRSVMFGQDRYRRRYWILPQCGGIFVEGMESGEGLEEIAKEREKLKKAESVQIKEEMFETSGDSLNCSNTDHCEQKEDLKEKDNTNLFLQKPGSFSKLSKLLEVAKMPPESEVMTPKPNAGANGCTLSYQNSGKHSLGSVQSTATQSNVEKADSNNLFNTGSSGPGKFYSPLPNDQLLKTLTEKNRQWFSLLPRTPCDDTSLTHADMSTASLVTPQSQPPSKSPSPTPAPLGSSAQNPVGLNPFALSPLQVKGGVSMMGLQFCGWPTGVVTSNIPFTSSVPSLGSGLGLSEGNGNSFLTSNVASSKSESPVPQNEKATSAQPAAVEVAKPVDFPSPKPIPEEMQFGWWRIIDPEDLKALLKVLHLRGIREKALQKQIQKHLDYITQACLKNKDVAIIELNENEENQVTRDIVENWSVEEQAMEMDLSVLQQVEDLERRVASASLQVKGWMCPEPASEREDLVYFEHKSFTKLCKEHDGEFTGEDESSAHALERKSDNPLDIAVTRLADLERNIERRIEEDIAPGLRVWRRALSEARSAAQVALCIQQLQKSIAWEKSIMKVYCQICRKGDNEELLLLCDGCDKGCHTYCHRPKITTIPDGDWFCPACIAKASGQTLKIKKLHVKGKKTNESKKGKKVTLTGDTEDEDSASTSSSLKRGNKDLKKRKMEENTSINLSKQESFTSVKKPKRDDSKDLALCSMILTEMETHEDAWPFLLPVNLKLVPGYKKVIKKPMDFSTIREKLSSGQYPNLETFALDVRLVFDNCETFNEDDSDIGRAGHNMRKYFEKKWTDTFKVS

Row | Compound | activity change, negative = inhibition | Potency
1 | CCOC(=O)N1CCC(NC(=O)c2cnn(-c3ccc(C)cc3)c2-n2cccc2)CC1 | inactive: -14% | 
2 | COc1ccc(OC)c(C2C(C(C)=O)=C(O)C(=O)N2c2ccc(O)cc2)c1 (stereo unspecified) |  | inconclusive: 70.8 µM [inhibitor, single point]
3 | CCn1cc(C(=O)OCC(=O)c2cc(C)n(-c3ccccc3F)c2C)c(=O)c2ccc(C)nc21 |  | inconclusive: 50.1 µM [inhibitor, partial curve]
4 | COc1ccc(-n2c(SCC(=O)Nc3ccc(C(=O)O)cc3)nnc2-c2ccccc2)cc1OC |  | active: 56.2 µM
5 | CN(C)/C=C/c1c([N+](=O)[O-])c2ccc(O)cc2n1-c1ccccc1 |  | active: 35.5 µM
6 | c1csc(C2Nc3cccc4cccc(c34)N2)c1 |  | inconclusive: 50.1 µM [inhibitor, partial curve]
7 | CC(C)(C)c1csc(N/N=C/c2cccnc2)n1 |  | active: 39.8 µM
8 | CCOC(=O)C1CCCN(Cc2ccccc2OCC)C1 (stereo unspecified) |  | inconclusive: 89.1 µM [inhibitor, single point]
9 | CC(=O)N1c2ccc(S(=O)(=O)N3CCCCC3)cc2CC1C(=O)Nc1cccc(C)c1 (stereo unspecified) |  | inconclusive: 79.4 µM [inhibitor, single point]
10 | CCC(C)(C)NC(=O)CN(C(=O)CCC(=O)Nc1nccs1)c1ccc2c(c1)OCCO2 |  | inconclusive: 89.1 µM [inhibitor, single point]
11 | CCOC(=O)c1c(C)[nH]c(C(=O)OCC(=O)c2ccccc2)c1C | inactive: -27.1% | 
12 | CC1CCCCC1Nc1ncnc2sccc12 (stereo unspecified) | inactive: 10.4% | 
13 | Cc1ccccc1NC(=O)Cn1c(=O)n(CCCCCC(=O)NCc2ccccc2Cl)c(=O)c2sccc21 |  | inconclusive: 89.1 µM [inhibitor, single point]
14 | CC(=O)Nc1ccc(S[C@@H](CCN2CC[C@H](C(C)(C)C)CCC2=O)c2ccccc2)cc1 |  | inconclusive: 56.2 µM [inhibitor, partial curve]
15 | CSc1ccc(-c2sc(Nc3ccccc3)n[n+]2-c2ccc(F)cc2)cc1 |  | inconclusive: 89.1 µM [inhibitor, single point]
16 | Clc1ccc(C[n+]2cc(-c3ccccc3)n3c2CCCCC3)c(Cl)c1 | inactive: -16.2% | 
17 | COc1cccc(NC(=O)c2ccc3c(c2)C(=O)N(CC2CCCO2)C3=O)c1 (stereo unspecified) | inactive: -9.88% [at 57.1 µM] | 
18 | Cc1cc(C(=O)CN2CCCCC2)c(C)n1-c1ccc(F)cc1 |  | inconclusive: 70.8 µM [inhibitor, single point]
19 | COc1ccccc1C(=O)N=Nc1c(O)[nH]c2ccc([N+](=O)[O-])cc12 |  | inconclusive: 79.4 µM [inhibitor, single point]
20 | Cc1cc(C)nc(Nc2ccc(N3CCCC3)cc2)n1 |  | active: 28.2 µM
21 | Cc1ccc(NC(=O)/C=C/c2ccc(Cl)cc2)c(Br)c1 | inactive: 8.73% | 
22 | COC(=O)c1c(NC(=O)Cc2cccs2)sc2c1CCCC2 |  | active: 79.4 µM
23 | COc1ccc(/C=N\N2CCN(Cc3ccccc3Cl)CC2)cc1 |  | inconclusive: 70.8 µM [inhibitor, single point]
24 | COc1cccc(CNC(=O)CSc2nc(=O)[nH]c3c2CCC3)c1 | inactive: -1.69% | 

Row | Compound | activity change, negative = inhibition | Potency
25 | CCS(=O)(=O)c1ccc(O)c(NC(=O)c2cc(OC)c(OC)c(OC)c2)c1 | inactive: 4.88% | 
26 | CCOc1ccccc1C(=O)Nc1cccc2ccc(C)nc12 | inactive: -3.13% | 
27 | Cn1c(Oc2ccc(Cl)c3cccnc23)nc2c1c(=O)n(Cc1ccccc1Cl)c(=O)n2C |  | inconclusive: 89.1 µM [inhibitor, single point]
28 | CCCn1c(=N)n(CC(O)COc2cccc(C)c2)c2ccccc21 (stereo unspecified) |  | inconclusive: 89.1 µM [inhibitor, single point]
29 | O=C(Oc1cc(Cl)ccc1Cl)c1ccc(N2CCOCC2)c([N+](=O)[O-])c1 |  | inconclusive: 11.2 µM [inhibitor, full curve]
30 | CCOc1ccc(OCc2ccc(C(=O)Nc3cc(OC)c(OC)c(OC)c3)o2)cc1 |  | inconclusive: 89.1 µM [inhibitor, single point]
31 | O=C(c1cnn(C(=O)COc2ccccc2F)c1)c1cc(F)ccc1O |  | inconclusive: 79.4 µM [inhibitor, single point]
32 | O=c1[nH]cc(C(F)(F)F)cc1NS(=O)(=O)c1ccccc1[N+](=O)[O-] |  | inconclusive: 79.4 µM [inhibitor, single point]
33 | COc1ccc(CC2SC(=Nc3ccc(F)cc3)NC2=O)cc1 (stereo unspecified) | inactive: -1.8% | 
34 | C/C(=N\NC(=O)C(C)Nc1cccc(Cl)c1)c1ccc([N+](=O)[O-])cc1 (stereo unspecified) |  | inconclusive: 44.7 µM [inhibitor, partial curve]
35 | O=C(/C=C/c1ccccc1)NC(=S)NNC(=O)Cc1cccs1 | inactive: 10.8% | 
36 | COc1cc(/C=C/C(=O)OCC(=O)Nc2ccc(Cl)cn2)ccc1O |  | inconclusive: 100 µM [inhibitor, single point]
37 | Cc1ccc2nc(NC(=O)CSc3nncc(=O)n3N)sc2c1 |  | inconclusive: 89.1 µM [inhibitor, single point]
38 | Cc1ccc(-c2nc(SCC(=O)Nc3ccccc3OC(F)F)c3c(C)c(C(=O)O)sc3n2)cc1 |  | active: 44.7 µM
39 | O=C(NCC(=O)N1CCCC(C(F)(F)F)C1)c1ccco1 (stereo unspecified) | inactive: 8.88% | 
40 | CCc1ccc2c(c1)C(c1ccncc1)=NNC(c1ccccc1)=N2 |  | inconclusive: 70.8 µM [inhibitor, single point]
41 | CCN1CCN(Cc2ccc(NC(=O)c3ccc(C)c(NC(=O)c4csc(-c5ccncc5)n4)c3)cc2C(F)(F)F)CC1 |  | inconclusive: 79.4 µM [inhibitor, single point]
42 | O=c1c2c(-c3ccccc3)csc2ncn1/N=C/c1c2ccccc2cc2ccccc12 |  | inconclusive: 89.1 µM [inhibitor, single point]
43 | CCOc1ccc(N(CC(=O)Nc2cccc(C)c2)S(C)(=O)=O)cc1 |  | inconclusive: 89.1 µM [inhibitor, single point]
44 | CCCC(OC(=O)CC1Sc2ccccc2NC1=O)C(=O)NCc1ccco1 (stereo unspecified) |  | inconclusive: 89.1 µM [inhibitor, single point]
45 | COc1ccc2cc(C(=O)COC(=O)COc3ccc4c(C)cc(=O)oc4c3)ccc2c1 | inactive: -5.49% | 
46 | Nc1ccc(C2=Nc3cccc4cccc(c34)N2)cc1 |  | active: 50.1 µM
47 | COc1ccc(N=Nc2ccc(N)nc2N)cc1 |  | active: 39.8 µM
48 | O=C(Nc1ccc(Cl)cc1)OCc1cncs1 |  | inconclusive: 89.1 µM [inhibitor, single point]

Row | Compound | activity change, negative = inhibition | Potency
49 | COCCNC(=O)C(=O)NNC(=O)CCc1ccccc1 |  | inconclusive: 89.1 µM [inhibitor, single point]
50 | COCCCNC(=O)c1[nH]c2cc(OC)ccc2c1Sc1ccc(C)cc1 |  | inconclusive: 89.1 µM [inhibitor, single point]
51 | CCOC(=O)C1CC(=O)c2cc(OC)c(OC)cc2C1 (stereo unspecified) | inactive: 0.75% | 
52 | O=C(NCc1ccccn1)C(=O)NN=C1CCCCCCCCCCC1 | inactive: -21.7% | 
53 | Cc1cc(C)nc(SCC(=O)Nc2ccc3c(c2)OCO3)n1 | inactive: 3.94% | 
54 | Cc1noc(/C=C/N(C)C)c1S(=O)(=O)N1CCN(c2ccccc2)CC1 |  | inconclusive: 39.8 µM [inhibitor, full curve, poor fit]
55 | CCCCCC[n+]1c(-c2ccccc2)csc1Nc1ccccc1 |  | active: 17.8 µM
56 | CNc1nc(-c2ccc3c(c2)CCN3S(=O)(=O)c2ccccc2)c(C)s1 |  | inconclusive: 44.7 µM [inhibitor, partial curve]
57 | Cc1onc(-c2c(Cl)cccc2Cl)c1NC(=O)NNc1ccccc1 | inactive: -15% | 
58 | O=C(CCS(=O)(=O)c1ccc(Br)cc1)N1CCN(c2ccccc2)CC1 |  | inconclusive: 56.2 µM [inhibitor, partial curve]
59 | COc1ccc(-c2c3c(=O)n(C)c(=O)n(C)c3cn2-c2cccc(N)c2)cc1 |  | inconclusive: 44.7 µM [inhibitor, partial curve]
60 | CCOC(=O)c1ccc([N+](=O)[O-])c(CS(=O)(=O)c2ccc(Cl)cc2)c1 |  | inconclusive: 50.1 µM [inhibitor, partial curve]
61 | COc1ccc(-c2csc(NC(=O)c3ccccc3NS(=O)(=O)c3ccc(F)c(F)c3)n2)cc1 |  | active: 44.7 µM
62 | Cc1cccnc1NC(=O)CCc1nnc2ccc(N3CCC4(CC3)OCCO4)nn12 | inactive: -7.93% | 
63 | CCC1CCC(c2nnc(-c3ccc([N+](=O)[O-])cc3)o2)CC1 (stereo unspecified) |  | inconclusive: 22.4 µM [inhibitor, partial curve]
64 | NC(=O)CC[C@@H]1NC(=O)[C@@H]2CCCN2C(=O)c2cc([N+](=O)[O-])cc(I)c2NCCC[C@@H](C(=O)NC(CC(=O)O)C(N)=O)NC1=O (stereo partly specified) | inactive: -2.73% | 
65 | CCOC(=O)N1CCC(Nc2c(NCCCN(CC)c3cccc(C)c3)c(=O)c2=O)CC1 |  | inconclusive: 89.1 µM [inhibitor, single point]
66 | CCOc1ccc(Nc2nc(Cc3nnc(SCC(=O)O)o3)cs2)cc1 |  | inconclusive: 79.4 µM [inhibitor, single point]
67 | Cc1c(C)n(Cc2ccccc2)c2ccc(C(=O)NCCCN3CCOCC3)cc12 |  | inconclusive: 25.1 µM [inhibitor, single point]
68 | O=C(CN(C1CCCCC1)S(=O)(=O)c1ccccc1)N1CCCC1 | inactive: -4.16% | 
69 | O=C(COC(=O)c1ccc2[nH]c3c(c2c1)CCCC3)NC1CCS(=O)(=O)C1 (stereo unspecified) |  | inconclusive: 79.4 µM [inhibitor, single point]
70 | CC(=O)c1ccc(N2CCN(c3ccccc3O)CC2)c([N+](=O)[O-])c1 |  | inconclusive: 44.7 µM [inhibitor, partial curve]
71 | CC(C)(C)C1CCC(OCC(O)CN2CCN(c3ccccn3)CC2)CC1 (stereo unspecified) |  | inconclusive: 56.2 µM [inhibitor, partial curve]

— PubChem BioAssay AID504333 (National Center for Advancing Translational Sciences (NCATS), 2011)
